The labels stand for the following.
B1: GGUCACA (DNA:RNA)
RNA: GGGAGACCGGAAUUCAGAUUGUCCGGUCACAUUAAAUCCCGUCGUAGCCACCA
DNA 1: CAATCTGAATTCCGGTCTCCC
DNA 2: TGGTGGCTACGACGGGATT
B2: CCUAGCC (DNA:RNA)
RNA: B1 RNA with G25C, G26C, C28A, A29G, A31C
DNA 1: CAATCTGAATTCCGGTCTCCC
DNA 2: TGGTGGCTACGACGGGATT
B3: GAAGGUG (DNA:RNA)
RNA: B1 RNA with G26A, U27A, C28G, A29G, C30U, A31G
DNA 1: CAATCTGAATTCCGGTCTCCC
DNA 2: TGGTGGCTACGACGGGATT
B4: CGGCAUU (DNA:RNA)
RNA: B1 RNA with G25C, U27G, C30U, A31U
DNA 1: CAATCTGAATTCCGGTCTCCC
DNA 2: TGGTGGCTACGACGGGATT
B5: GUCUGUC (DNA:RNA)
RNA: B1 RNA with G26U, U27C, C28U, A29G, C30U, A31C
DNA 1: CAATCTGAATTCCGGTCTCCC
DNA 2: TGGTGGCTACGACGGGATT
B6: GUCGUAA (DNA:RNA)
RNA: B1 RNA with G26U, U27C, C28G, A29U, C30A
DNA 1: CAATCTGAATTCCGGTCTCCC
DNA 2: TGGTGGCTACGACGGGATT
B7: UUGUACA (DNA:RNA)
RNA: B1 RNA with G25U, G26U, U27G, C28U
DNA 1: CAATCTGAATTCCGGTCTCCC
DNA 2: TGGTGGCTACGACGGGATT
B8: CAUUCAU (DNA:RNA)
RNA: B1 RNA with G25C, G26A, C28U, A29C, C30A, A31U
DNA 1: CAATCTGAATTCCGGTCTCCC
DNA 2: TGGTGGCTACGACGGGATT
B9: CCCUUCU (DNA:RNA)
RNA: B1 RNA with G25C, G26C, U27C, C28U, A29U, A31U
DNA 1: CAATCTGAATTCCGGTCTCCC
DNA 2: TGGTGGCTACGACGGGATT
B10: AUUCCUG (DNA:RNA)
RNA: B1 RNA with G25A, G26U, A29C, C30U, A31G
DNA 1: CAATCTGAATTCCGGTCTCCC
DNA 2: TGGTGGCTACGACGGGATT
B11: AUGUAUA (DNA:RNA)
RNA: B1 RNA with G25A, G26U, U27G, C28U, C30U
DNA 1: CAATCTGAATTCCGGTCTCCC
DNA 2: TGGTGGCTACGACGGGATT
B12: GUGGUCA (DNA:RNA)
RNA: B1 RNA with G26U, U27G, C28G, A29U
DNA 1: CAATCTGAATTCCGGTCTCCC
DNA 2: TGGTGGCTACGACGGGATT
B13: GCGAUGC (DNA:RNA)
RNA: B1 RNA with G26C, U27G, C28A, A29U, C30G, A31C
DNA 1: CAATCTGAATTCCGGTCTCCC
DNA 2: TGGTGGCTACGACGGGATT
B14: CCAGAGA (DNA:RNA)
RNA: B1 RNA with G25C, G26C, U27A, C28G, C30G
DNA 1: CAATCTGAATTCCGGTCTCCC
DNA 2: TGGTGGCTACGACGGGATT
B15: UCAGCUU (DNA:RNA)
RNA: GGGAGACCGGAAUUCAGAUUGUCCUCAGCUUUUAAAUCCCGUCGUAGCCACCA
DNA 1: CAATCTGAATTCCGGTCTCCC
DNA 2: TGGTGGCTACGACGGGATT
B16: UUUAGUG (DNA:RNA)
RNA: B15 RNA with C26U, A27U, G28A, C29G, U31G
DNA 1: CAATCTGAATTCCGGTCTCCC
DNA 2: TGGTGGCTACGACGGGATT
B17: GCAGGUC (DNA:RNA)
RNA: B15 RNA with U25G, C29G, U31C
DNA 1: CAATCTGAATTCCGGTCTCCC
DNA 2: TGGTGGCTACGACGGGATT
B18: UAGACGC (DNA:RNA)
RNA: B15 RNA with C26A, A27G, G28A, U30G, U31C
DNA 1: CAATCTGAATTCCGGTCTCCC
DNA 2: TGGTGGCTACGACGGGATT
B19: AUGUACC (DNA:RNA)
RNA: B1 RNA with G25A, G26U, U27G, C28U, A31C
DNA 1: CAATCTGAATTCCGGTCTCCC
DNA 2: TGGTGGCTACGACGGGATT
B20: UAGAGCC (DNA:RNA)
RNA: B1 RNA with G25U, G26A, U27G, C28A, A29G, A31C
DNA 1: CAATCTGAATTCCGGTCTCCC
DNA 2: TGGTGGCTACGACGGGATT
B21: GAUGGAG (DNA:RNA)
RNA: B1 RNA with G26A, C28G, A29G, C30A, A31G
DNA 1: CAATCTGAATTCCGGTCTCCC
DNA 2: TGGTGGCTACGACGGGATT
B22: CAGAAUU (DNA:RNA)
RNA: B15 RNA with U25C, C26A, A27G, G28A, C29A
DNA 1: CAATCTGAATTCCGGTCTCCC
DNA 2: TGGTGGCTACGACGGGATT
B23: ACUCUGG (DNA:RNA)
RNA: B1 RNA with G25A, G26C, A29U, C30G, A31G
DNA 1: CAATCTGAATTCCGGTCTCCC
DNA 2: TGGTGGCTACGACGGGATT
B24: CGCCUCG (DNA:RNA)
RNA: B1 RNA with G25C, U27C, A29U, A31G
DNA 1: CAATCTGAATTCCGGTCTCCC
DNA 2: TGGTGGCTACGACGGGATT
B25: CAAUAUA (DNA:RNA)
RNA: B1 RNA with G25C, G26A, U27A, C28U, C30U
DNA 1: CAATCTGAATTCCGGTCTCCC
DNA 2: TGGTGGCTACGACGGGATT
B26: CUCAUCU (DNA:RNA)
RNA: B1 RNA with G25C, G26U, U27C, C28A, A29U, A31U
DNA 1: CAATCTGAATTCCGGTCTCCC
DNA 2: TGGTGGCTACGACGGGATT
B27: UUCGUCC (DNA:RNA)
RNA: B15 RNA with C26U, A27C, C29U, U30C, U31C
DNA 1: CAATCTGAATTCCGGTCTCCC
DNA 2: TGGTGGCTACGACGGGATT
B28: GCAGCUG (DNA:RNA)
RNA: B15 RNA with U25G, U31G
DNA 1: CAATCTGAATTCCGGTCTCCC
DNA 2: TGGTGGCTACGACGGGATT
B29: GGAUACG (DNA:RNA)
RNA: B1 RNA with U27A, C28U, A31G
DNA 1: CAATCTGAATTCCGGTCTCCC
DNA 2: TGGTGGCTACGACGGGATT
B30: UCACAAG (DNA:RNA)
RNA: B15 RNA with G28C, C29A, U30A, U31G
DNA 1: CAATCTGAATTCCGGTCTCCC
DNA 2: TGGTGGCTACGACGGGATT
B31: CGGAUGG (DNA:RNA)
RNA: B1 RNA with G25C, U27G, C28A, A29U, C30G, A31G
DNA 1: CAATCTGAATTCCGGTCTCCC
DNA 2: TGGTGGCTACGACGGGATT

Positions count from the first letter of the chain named. Some of the results follow.

Experimental findings from PMC9911399, “Two distinct binding modes provide the RNA-binding protein RbFox with extraordinary sequence specificity” are described below.

The test has as its target T1, RBFOX1 RRM RbFoxmut (Fox-RRM*) (Homo sapiens, UniProt Q9NWB1 109-208, R118D;E147R;N151S;E152T).
T1 sequence: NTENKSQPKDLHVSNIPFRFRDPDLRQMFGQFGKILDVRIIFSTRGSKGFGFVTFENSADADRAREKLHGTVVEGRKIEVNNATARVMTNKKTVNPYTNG
As to the kind of experiment: EMSA; HiTS-Eq, 1 nM pool, 10 min; buffer printed only for the single-RNA assays: 10 mM Tris pH 7.5, 150 mM NaCl, 3.4 mM EDTA, 0.001% NP-40, 30 C. The conditions noted are these: tags: His6 N-terminal (pET28a); label: 5' 32P. An outline of the steps:
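Relative association constants, normalised to the cognate motif, were derived by comparing read counts of each RNA species with those of the control reaction. The RNA sequenced was the free fraction, separated by 8% native PAGE after a 10 min equilibration in 50 µL of 1 nM 5′-radiolabelled RNA (7 randomized nucleotides) with increasing concentrations of purified wild-type or mutant RbFox RRM.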
(In general: Mobility shift assays separate free from complexed probe on a gel.)
Turning to B1, the binding signal is 0.0604 KA relative to UGCAUGU.

Turning to B2, the binding signal was 0.149 KA relative to UGCAUGU.

Take B3: the binding signal was 0.102 KA relative to UGCAUGU.

On to B4, for which the binding signal was 0.0736 KA relative to UGCAUGU.

As to B5, the binding signal was 0.257 KA relative to UGCAUGU.

Turning to B6, the binding signal was 0.144 KA relative to UGCAUGU.

As for B7, the binding signal was 0.101 KA relative to UGCAUGU.

On to B8, for which the binding signal is 0.13 KA relative to UGCAUGU.

Turning to B9, the binding signal is 0.0646 KA relative to UGCAUGU.

On to B10, for which the binding signal was 0.0874 KA relative to UGCAUGU.

In the case of B11, the binding signal is 0.23 KA relative to UGCAUGU.

Take B12: the binding signal is 0.137 KA relative to UGCAUGU.

As to B13, the binding signal is 0.0847 KA relative to UGCAUGU.

As for B14, the binding signal is 0.125 KA relative to UGCAUGU.

In the case of B15, the binding signal was 0.112 KA relative to UGCAUGU.

Take B16: the binding signal is 0.147 KA relative to UGCAUGU.

As to B17, the binding signal was 0.128 KA relative to UGCAUGU.

On to B18, for which the binding signal was 0.059 KA relative to UGCAUGU.

As for B19, the binding signal is 0.202 KA relative to UGCAUGU.

In the case of B20, the binding signal was 0.13 KA relative to UGCAUGU.

B21: the binding signal is 0.103 KA relative to UGCAUGU.

As to B22, the binding signal is 0.0966 KA relative to UGCAUGU.

Regarding B23, the binding signal is 0.0931 KA relative to UGCAUGU.

On to B24, for which the binding signal is 0.236 KA relative to UGCAUGU.

In the case of B25, the binding signal is 0.155 KA relative to UGCAUGU.

As to B26, the binding signal is 0.0833 KA relative to UGCAUGU.

In the case of B27, the binding signal is 0.0891 KA relative to UGCAUGU.

For the molecule B28, the binding signal is 0.0707 KA relative to UGCAUGU.

As for B29, the binding signal was 0.112 KA relative to UGCAUGU.

B30: the binding signal is 0.086 KA relative to UGCAUGU.

As to B31, the binding signal is 0.175 KA relative to UGCAUGU.
